Among all 330,000 compounds or so, about 4,200 (1.3%) were called active. The shares of active, inactive and inconclusive entries below differ from those in the screen. Calls follow the shape of the dose curve; as a rule, active = well fitted activation curve with a large enough effect; inconclusive = small, poorly fitted or top-dose-only effect; inactive = no such curve, though single readings can be large or run the other way. Potencies beside an inconclusive call are fits to weak or partial responses and may not hold up.
Test: qHTS screen for small molecules that induce genotoxicity in human embryonic kidney (HEK293T) cells expressing luciferase-tagged ELG1; also: nearly all actives have a fitted effect of over 60% in size
Conditions: HEK293T ELG1-luciferase reporter, luminescence, 16 h; series mostly up to 46 µM
In short: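 Screening used a luciferase reporter fused to human ELG1 in HEK293T cells. Luminescence was read on a CCD plate imager after 16 hr exposure and 30 min ONE-Glo incubation.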
Potency is read from the fitted curve at half-maximal effect; tags tell the direction and shape of the fitted curve.

Compound	Potency
c1ccc(CCc2nc(-c3ccncc3)no2)cc1	inconclusive: 14.6 µM [activator, partial curve]
CCCCS/C(N)=N/N=C/c1cc(C)ccc1O	inconclusive: 16.4 µM [activator, partial curve, poor fit]
O=C(Cc1cccs1)Nc1nnc(SCC(=O)NC2CCCCC2)s1	inconclusive: 32.6 µM [activator, partial curve, poor fit]
CC(=O)c1ccc(OCc2cc(C(=O)N3CCN(c4ccccc4)CC3C)no2)cc1 (centres undefined)	inconclusive: 2.91 µM [activator, full curve]
COc1ccc(C2=NN(S(C)(=O)=O)C(c3ccc4nccnc4c3)C2)cc1 (centres undefined)	inconclusive: 16.4 µM [activator, single point]
CCOC(=O)Nc1cccc(Nc2ccccc2)c1	inconclusive: 20.6 µM [activator, single point]
COc1ccc(C)cc1-n1c(N)c(C#N)c(C#N)c1-c1ccc(OC)c(OC)c1OC	inconclusive: 23.1 µM [activator, partial curve, poor fit]
COc1ccc(/C=C2\SC(=O)N(CCNC(=O)CCS(=O)(=O)c3ccc(C)cc3)C2=O)cc1	inconclusive: 6.51 µM [activator, partial curve, poor fit]
CCOC(=O)c1[nH]c2c(c1C)C(=O)CC(c1ccc(N(C)C)cc1)C2 (centres undefined)	inconclusive: 20.6 µM [activator, partial curve]
O=C(Nc1cccc(-c2ccc(N3CCOCC3)nn2)c1)c1ccc(Cl)cc1	inconclusive: 8.2 µM [activator, partial curve]
COc1ccc(/C=N/NC(=O)CCc2ccccc2)cc1O	inactive
Cc1cccc(-c2nc(CN3CCCC(C(=O)NC4CCCC4)C3)c(C)o2)c1 (centres undefined)	inconclusive: 29.1 µM [activator, partial curve, poor fit]
O=C(Cc1ccccc1[N+](=O)[O-])NCc1ccc(Cl)cc1	inconclusive: 23.1 µM [activator, partial curve, poor fit]
Cc1nc(N=Nc2ccc(O)cc2)n[nH]1	inconclusive: 11.6 µM [activator, partial curve, poor fit]
O=C(O)Cc1sc(Nc2cccc3ccccc23)nc1-c1ccc(Cl)cc1	inactive
Cn1c(COc2ccccc2Br)nc2ccccc21	active: 10.3 µM
COc1ccc(-c2ccc(-c3noc(C)n3)c(OC)n2)cc1	inconclusive: 18.4 µM [activator, partial curve]
O=C(Nc1ccc(NC(=O)c2sc3ccccc3c2Cl)cc1)c1ccco1	active: 23.1 µM
CC(=O)c1cccc(N/C=C\C(=O)c2ccc(C)cc2)c1	active: 2.59 µM
O=C(CCN1CCOCC1)NNC(=O)Nc1cccc([N+](=O)[O-])c1	inactive
COc1ccccc1CNC(=O)CN(C)S(=O)(=O)c1ccc(F)cc1	inactive
CC(C)C(=O)Nc1nnc(SCC(=O)Nc2ccc3c(c2)OCO3)s1	inactive
CCc1ccc2oc(C(=O)Nc3cccnc3)c(C)c2c1	active: 4.11 µM
CCc1ccc(Nc2nc(C)cc(C)n2)cc1	inconclusive: 18.3 µM [activator, single point]
CC(C)(C)CC(=O)Nc1nnc(CCc2ccccc2)s1	inconclusive: 18.3 µM [activator, single point]

Compound	Potency
C[C@@H](CO)NC(=O)c1ccc2c3n(nc2c1)-c1ccccc1CO3	inconclusive: 1.03 µM [activator, full curve]
COc1ccc(C(=O)CC2SC(N)=NC2=O)cc1 (centres undefined)	inactive
CCSc1nnc(NC(=O)c2ccccc2)s1	inconclusive: 14.6 µM [activator, partial curve]
Cc1nc(SCc2ccccc2)nc2c1CCC2	inconclusive: 20.6 µM [activator, partial curve]
Nc1nc(SCc2ccccc2)ns1	active: 18.4 µM
CCN(CC)S(=O)(=O)c1csc(C(=O)Nc2ccccn2)c1	inconclusive: 29.1 µM [activator, partial curve, poor fit]
COc1cc(OC)cc(C(=O)Nc2ccc3nc4n(c(=O)c3c2)CCCC4)c1	inconclusive: 13 µM [activator, partial curve, poor fit]
CCOC(=O)c1ccc(COC(=O)c2cc3ccccc3oc2=O)o1	inconclusive: 23.1 µM [activator, single point]
O=C(NCCc1ccccc1)c1cccc(N2CCCC2=O)c1	inconclusive: 1.83 µM [activator, partial curve]
CCOc1cc(NC(=S)NCC2CCCO2)c(OCC)cc1NC(=O)c1ccc(OC)cc1 (centres undefined)	inactive
O=C(Nc1ncc(Cl)cn1)c1cccs1	inconclusive: 16.4 µM [activator, single point]
O=C(COc1ccc(Cl)cc1Cl)NN=C1c2ccccc2-c2ccccc21	inconclusive: 25.9 µM [activator, partial curve, poor fit]
O=C(Nc1ccc2ccccc2c1)c1cnccn1	inconclusive: 2.59 µM [activator, partial curve]
CC(C)Cn1nc(C(=O)Nc2nnc(C3CC3)s2)c2ccccc2c1=O	inactive
Cc1cccc(NC(=O)CCS(=O)(=O)c2cccc3nonc23)c1C	inconclusive: 16.4 µM [activator, partial curve, poor fit]
CCOC(=O)C1(Cc2cccc(OC)c2)CCCN(C(=O)c2cc(C)[nH]n2)C1 (centres undefined)	inactive
CCOC(=O)c1cnc(-n2nc(C)cc2C)nc1Nc1ccc(C)cc1	inconclusive: 13 µM [activator, partial curve, poor fit]
COc1ccc(NS(=O)(=O)c2cc(NC(=O)[C@@H](NC(=O)c3ccccc3)C(C)C)ccc2C)cc1	inactive
COc1ccc(CN(C)C(=O)c2ccc3c(=O)n4c(nc3c2)CCC4)c(OC)c1	inactive
Cc1cccc2nc(-c3ccco3)c(Nc3ccc4c(c3)OCCO4)n12	inconclusive: 7.3 µM [activator, partial curve]
Cc1cc2c(cc1C)CN(c1ccccc1)C2	active: 2.31 µM
CCOC(=O)N1CCN(C(=O)CCc2c(C)nc3c(c(C)nn3-c3ccc(C)c(C)c3)c2C)CC1	inactive
CCCNC(=O)c1ccc2c(c1)ncn2-c1cc(C)cc(C)c1	inactive
COc1cc(C2CC(=O)c3cnc(N4CCN(Cc5ccccc5)CC4)nc3C2)cc(OC)c1OC (centres undefined)	inactive
O=C(O)c1cc(NC(=O)c2ccc(Cl)c([N+](=O)[O-])c2)cc(C(=O)O)c1	inconclusive: 0.103 µM [activator, full curve, poor fit]

Compound	Potency
O=C(Nc1ccc2c(c1)OCO2)c1cnn2cccnc12	active: 4.11 µM
C=C1C(C(=O)Nc2ccc(OCC)cc2)C1C(=O)Nc1ccc(OCC)cc1 (centres undefined)	inconclusive: 18.3 µM [activator, partial curve, poor fit]
CCOC(=O)COc1ccc(S(=O)(=O)Nc2cccc(SC)c2)cc1	inactive
Clc1cccc(NCc2cn3cccnc3n2)c1	inactive
CCOC(=O)c1cnc2c(ccc3ccccc32)c1N	active: 8.2 µM
COc1ccc(NC(=O)CSCc2ccccc2C)cc1	inconclusive: 23.1 µM [activator, partial curve, poor fit]
Cc1csc(=N)n1-c1ccc(Cl)cc1	inconclusive: 9.2 µM [activator, partial curve, poor fit]
COc1ccccc1OCC(=O)Nc1ncc(C)s1	inconclusive: 3.26 µM [activator, partial curve]
CCNC(=S)N/N=C/c1cccs1	inconclusive: 25.9 µM [activator, partial curve, poor fit]
Oc1cc(O)c2c(c1)OC(c1ccc(O)c(O)c1)C(O)C2 (centres undefined)	inconclusive: 2.91 µM [activator, partial curve, poor fit]
CC1=CC(C)C2(COC(c3ccc[n+](C)c3)OC2)C(C)C1 (centres undefined)	inactive
Cc1ccc2nc(NC(=O)CCCc3nc4ccccc4s3)sc2c1	inconclusive: 9.2 µM [activator, partial curve]
CC(C)c1ccc(Nc2nc(CC(=O)O)cs2)cc1	inconclusive: 29.1 µM [activator, single point]
CCOC(=O)[C@H]1[C@H]2COc3ccc(OC)cc3[C@@H]2N2C(=O)c3cc(C)ccc3NC(=O)[C@@]12C	inactive
c1csc(C2=NNC(=NC3CCCCC3)SC2)c1	inconclusive: 2.06 µM [activator, full curve, poor fit]
O=C(O)c1cccc(-n2cccc2/C=C\[N+](=O)[O-])c1	inconclusive: 16.4 µM [activator, partial curve, poor fit]
COc1ccc(N=Nc2n(C)c3ccccc3[n+]2C)cc1	active: 0.92 µM
COc1cccc(Oc2ccc(N)cc2)c1	inconclusive: 12.6 µM [activator, single point]
O=C1C=C(c2cc3ccccc3s2)C[C@@H](c2ccc3c(c2)OCO3)C1	inactive
COc1ccc(-c2csc(NC3CCCCC3)n2)c(OC)c1	inconclusive: 20.6 µM [activator, partial curve, poor fit]
O=C(Cc1ccccc1[N+](=O)[O-])NCc1ccc(Cl)cc1Cl	inconclusive: 6.51 µM [activator, full curve]
CC(C)C1N(C(N)=S)N=CC1(C)C (centres undefined)	inactive
O=C(NCCc1nccs1)C1CCC(=O)N(CCc2ccc(Cl)cc2)C1 (centres undefined)	inactive
COc1ccc(-c2cc(COc3ccccc3)on2)cc1	inconclusive: 20.6 µM [activator, single point]
